# Data as given in PMC9911399, “Two distinct binding modes provide the RNA-binding protein RbFox with extraordinary sequence specificity”.
# Where a chain is given by its changes, count along the chain named. The list shows a part of the results.
# T1: RBFOX1 RRM (Homo sapiens, UniProt Q9NWB1 109-208)
# T1 sequence: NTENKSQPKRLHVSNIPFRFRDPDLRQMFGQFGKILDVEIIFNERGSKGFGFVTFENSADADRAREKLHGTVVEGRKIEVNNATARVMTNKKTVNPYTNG
# B1: CGAGAGC (DNA:RNA)
# RNA: GGGAGACCGGAAUUCAGAUUGUCCCGAGAGCUUAAAUCCCGUCGUAGCCACCA
# DNA 1: CAATCTGAATTCCGGTCTCCC
# DNA 2: TGGTGGCTACGACGGGATT
# B2: GGCCACA (DNA:RNA)
# RNA: B1 RNA with C25G, A27C, G28C, G30C, C31A
# DNA 1: CAATCTGAATTCCGGTCTCCC
# DNA 2: TGGTGGCTACGACGGGATT
# B3: CCCCGGC (DNA:RNA)
# RNA: B1 RNA with G26C, A27C, G28C, A29G
# DNA 1: CAATCTGAATTCCGGTCTCCC
# DNA 2: TGGTGGCTACGACGGGATT
# B4: ACCGGAU (DNA:RNA)
# RNA: B1 RNA with C25A, G26C, A27C, A29G, G30A, C31U
# DNA 1: CAATCTGAATTCCGGTCTCCC
# DNA 2: TGGTGGCTACGACGGGATT
# B5: UUGUCAU (DNA:RNA)
# RNA: GGGAGACCGGAAUUCAGAUUGUCCUUGUCAUUUAAAUCCCGUCGUAGCCACCA
# DNA 1: CAATCTGAATTCCGGTCTCCC
# DNA 2: TGGTGGCTACGACGGGATT
# B6: AACAUCA (DNA:RNA)
# RNA: GGGAGACCGGAAUUCAGAUUGUCCAACAUCAUUAAAUCCCGUCGUAGCCACCA
# DNA 1: CAATCTGAATTCCGGTCTCCC
# DNA 2: TGGTGGCTACGACGGGATT
# B7: GUUAAUC (DNA:RNA)
# RNA: B1 RNA with C25G, G26U, A27U, G28A, G30U
# DNA 1: CAATCTGAATTCCGGTCTCCC
# DNA 2: TGGTGGCTACGACGGGATT
# B8: GUGCGUG (DNA:RNA)
# RNA: B5 RNA with U25G, U28C, C29G, A30U, U31G
# DNA 1: CAATCTGAATTCCGGTCTCCC
# DNA 2: TGGTGGCTACGACGGGATT
# B9: GUGAUGU (DNA:RNA)
# RNA: B5 RNA with U25G, U28A, C29U, A30G
# DNA 1: CAATCTGAATTCCGGTCTCCC
# DNA 2: TGGTGGCTACGACGGGATT
# B10: UAUUGCG (DNA:RNA)
# RNA: B6 RNA with A25U, C27U, A28U, U29G, A31G
# DNA 1: CAATCTGAATTCCGGTCTCCC
# DNA 2: TGGTGGCTACGACGGGATT
# B11: UUCAGGG (DNA:RNA)
# RNA: B6 RNA with A25U, A26U, U29G, C30G, A31G
# DNA 1: CAATCTGAATTCCGGTCTCCC
# DNA 2: TGGTGGCTACGACGGGATT
# B12: CAAUUAA (DNA:RNA)
# RNA: B6 RNA with A25C, C27A, A28U, C30A
# DNA 1: CAATCTGAATTCCGGTCTCCC
# DNA 2: TGGTGGCTACGACGGGATT
# B13: CCCGUAU (DNA:RNA)
# RNA: B6 RNA with A25C, A26C, A28G, C30A, A31U
# DNA 1: CAATCTGAATTCCGGTCTCCC
# DNA 2: TGGTGGCTACGACGGGATT
# B14: CAACCUA (DNA:RNA)
# RNA: B6 RNA with A25C, C27A, A28C, U29C, C30U
# DNA 1: CAATCTGAATTCCGGTCTCCC
# DNA 2: TGGTGGCTACGACGGGATT
# B15: UGUCGGU (DNA:RNA)
# RNA: B1 RNA with C25U, A27U, G28C, A29G, C31U
# DNA 1: CAATCTGAATTCCGGTCTCCC
# DNA 2: TGGTGGCTACGACGGGATT
# B16: ACUGACA (DNA:RNA)
# RNA: B6 RNA with A26C, C27U, A28G, U29A
# DNA 1: CAATCTGAATTCCGGTCTCCC
# DNA 2: TGGTGGCTACGACGGGATT
# B17: GUUAUCG (DNA:RNA)
# RNA: B6 RNA with A25G, A26U, C27U, A31G
# DNA 1: CAATCTGAATTCCGGTCTCCC
# DNA 2: TGGTGGCTACGACGGGATT
# B18: GAACUCG (DNA:RNA)
# RNA: B6 RNA with A25G, C27A, A28C, A31G
# DNA 1: CAATCTGAATTCCGGTCTCCC
# DNA 2: TGGTGGCTACGACGGGATT
# B19: CCCGUGA (DNA:RNA)
# RNA: B6 RNA with A25C, A26C, A28G, C30G
# DNA 1: CAATCTGAATTCCGGTCTCCC
# DNA 2: TGGTGGCTACGACGGGATT
# B20: GAUGUGA (DNA:RNA)
# RNA: B6 RNA with A25G, C27U, A28G, C30G
# DNA 1: CAATCTGAATTCCGGTCTCCC
# DNA 2: TGGTGGCTACGACGGGATT
# Biological target: T1, RBFOX1 RRM
# Assay: EMSA; HiTS-Eq, 1 nM pool, 10 min; buffer printed only for the single-RNA assays: 10 mM Tris pH 7.5, 150 mM NaCl, 3.4 mM EDTA, 0.001% NP-40, 30 C
# Details: tags: His6 N-terminal (pET28a); label: 5' 32P
# Procedure, shortened: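 These values rest on relative association constants, computed from read-count changes of each RNA species versus the control reaction and normalised to the cognate motif. Reads came from free RNA recovered by 8% native PAGE after purified RbFox RRM (wild type or mutant) at increasing concentrations was equilibrated for 10 min in 50 µL with 1 nM of a 5′-radiolabelled pool with 7 randomized nucleotides and DNA-annealed flanks.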
row,Binder,binding signal
1,B1,0.0117 KA relative to UGCAUGU
2,B2,0.00555 KA relative to UGCAUGU
3,B3,0.00228 KA relative to UGCAUGU
4,B4,0.00466 KA relative to UGCAUGU
5,B5,0.00962 KA relative to UGCAUGU
6,B6,0.000329 KA relative to UGCAUGU
7,B7,0.00989 KA relative to UGCAUGU
8,B8,0.0481 KA relative to UGCAUGU
9,B9,0.0144 KA relative to UGCAUGU
10,B10,0.0247 KA relative to UGCAUGU
11,B11,0.00728 KA relative to UGCAUGU
12,B12,0.0015 KA relative to UGCAUGU
13,B13,0.009 KA relative to UGCAUGU
14,B14,0.000318 KA relative to UGCAUGU
15,B15,0.0189 KA relative to UGCAUGU
16,B16,0.00469 KA relative to UGCAUGU
17,B17,0.0107 KA relative to UGCAUGU
18,B18,0.0111 KA relative to UGCAUGU
19,B19,0.00709 KA relative to UGCAUGU
20,B20,0.0165 KA relative to UGCAUGU
